Data: patent US11666630B2, “Polypeptides for managing viral infections” (priority 2016, dated 2023)
Where two headings read alike, the source gives them in different places. Peptide text beside a SMILES is read from it.

Test system: ZIKV (PRVABC59 strain)

Row | Compound | Viral titers (FFU) after exposure of ZIKV to peptide | neutralization of ZIKV by D- and L-form | time at which maximum activity occurs | neutralization of ZIKV by D- and L-form (FIG. 6D) | virucidal activity against ZIKV of natural variants
1 | CC[C@H](C)[C@H](NC(=O)[C@@H](NC(=O)CNC(=O)[C@H](CC(C)C)NC(=O)[C@H](Cc1ccccc1)NC(=O)[C@H](Cc1ccccc1)NC(=O)[C@H](CC(C)C)NC(=O)[C@H](CC(C)C)NC(=O)[C@H](CC(C)C)NC(=O)[C@H](CCSC)NC(=O)[C@@H](N)CO)[C@@H](C)O)C(=O)N[C@@H](CO)C(=O)N[C@@H](CC(C)C)C(=O)N[C@@H](CO)C(=O)N[C@@H](CC(C)C)C(=O)N[C@@H](CS)C(=O)N[C@@H](CCC(N)=O)C(=O)N[C@@H](CC(=O)O)C(=O)N[C@@H](CC(=O)O)C(=O)N[C@@H](CCC(N)=O)C(=O)N[C@@H](CCC(=O)O)C(=O)N[C@@H](CCCNC(=N)N)C(=O)N[C@@H](CS)C(=O)O [Yodha peptide] (H-SMLLLFFLGTISLSLCQDDQERC-OH; N-terminus and C-terminus assumed) | significantly decreased | neutralized ZIKV with comparable efficiency | within the first five minutes | work against ZIKV | –
2 | PMLLLFFLGTISLSLCQEERGA [Variant 21] | – | – | – | – | exhibited activity against ZIKV
3 | SMLLLFFLGTISLSLCEEERDA [Variant 25] | – | – | – | – | no virucidal effect
